For orientation: Kd means the constant that tells how readily two partners part at equilibrium. High values mean weaker binding, low ones tighter binding.

Our source for the Kd values is paper PMC11470957 (2024).

The target in assay [1] is T1, KLHDC2 R56A mutant (UniProt Q9Y2U9 15-361, R56A). The experiment in a line: ITC; ternary complex with PROTAC SJ46421.
The target in assay [2] is T1, KLHDC2 R56A mutant. The experiment in a line: ITC; ternary, with SJ46421. Background: ITC needs no label: the signal is the heat of the interaction.

B1: BRD4^BD2 G-to-E swap mutant (G386E) (domain or fragment)
chain: not shown
Consider B1, for which the dissociation constant (Kd) in the assay with KLHDC2 R56A mutant [1] and with KLHDC2 R56A mutant [2] was 329 nM throughout.
